The source gives no read counts; variants with many changes may rest on few reads.

Data on 167 variants can be found in the RNAGym collection of RNA variant scans (doi:10.7554/elife.90254).

The labels stand for the following.
B1: OR4K15 (parent)
chain: GUUAACGGUCAUAGGCCAUGGAAACUAGGAGCACCAUUUCGCUGCCAGUGAAGAAAUGAACAAAGAAAAUCUGGGCCAGGCAGGCAUCAAAAGAAAUAGUCUUGCGCUCAACCAGAAAGUCUGUAAUCAUUUUAAGGGUA

Variants of B1 are the subject of the data set. The experiment in a line: self-cleavage, relative activity (ratio to wild type); higher = more cleavage; in vitro, sequencing; the parent is a self-cleaving ribozyme.
U43C A55G G84A: the self-cleavage worked out at 2.62.
The result for G44A A51U A82C U127A reads 0.06.
The figure for U43C A51G A69G A86U U102A A111G is 0.02; for G44A A62G A67G A92G U131C it is 1.32; for C45A A60G C128U it is 0.17.
The figure for U43A A94G U132C is 1.32.
For U43C A78U G83U A116U, the self-cleavage turned out to be 0.03.
The figure for A47U A54G A111G is 0.01; for A47U U87C U120C it is 0.26.
The result for A47G A54G A129U reads 0.21.
The result for A47U A86U A111G reads 0.03; that for U49A A64G U133C, 1.63.
As to G44A A116G U120A U124G A129U, the self-cleavage was 0.07.
The result for U43C U49C A55G U70A reads 1.5; that for G44A A117G U132C, 2.04.
The result for A47G U108C A117G reads 0.01; that for U43C U97A A129G, 0.97.
The figure for A47U U49C A116U is 0.07; for A47G U72A G93A A96G it is 0.1.
On to U49A A54U A78U, for which the self-cleavage is 0.3.
The result for A47G A60G U87A A117U reads 0.47; that for U43A A86U A111G A116G, 0; that for U43C A67G A110G U132C, 0.05.
A47G A62U G75A: the self-cleavage turned out to be 0.08.
The figure for U43C A90G U100C is 2.9.
The result for C46U A62G U122C reads 2.1; that for A47G A67G G75A, 0.08.
The result for A47G A56G A67G reads 1.99; that for A47G A95G U131C G138A, 0.87; that for A47G A62G U108C, 0.03.
On to A47G A56G U57G U131C, for which the self-cleavage was 0.43.
As for A47U G50U U139A, the self-cleavage was 1.13.
The result for A47U A67G U102A reads 0.48; that for G48U A56G A69G, 1.24; that for A47U A90G A117G A135U, 0.74.
The figure for A47G U97C U127C is 0.2; for A47U A52G U132C it is 0.72; for A47G A117G U124G it is 0.92.
The figure for A47G U57C A64G G99A A135G is 0.07; for A47G A54G A126G it is 0.21.
For U43A U49C A63G A78C A86G A125U, the self-cleavage came out at 0.2.
On to A47U A54U A60G A96G, for which the self-cleavage is 0.92.
The result for A47G A90G G123A reads 0.78; that for A47G A66U A91G, 0.5; that for A47U A86G A91G A116U, 0.01.
The result for G44U A55G A111G U124A reads 0.03; that for U43C A55G A67G A68U, 0.95; that for U43C A125G U139A, 0.46.
The result for A47G A67G A90U reads 1.48.
Turning to A47U A56G G106A A110U, the self-cleavage is 0.01.
The figure for A47G A64G U122C U130C is 1.04; for U43C A62G A90G it is 1.29.
The figure for U43A U57C U130C is 1.44; for A47G A54G A96G U120C it is 0.93; for A47G A89U U100C A111G it is 0.02.
As to A47U A66G A90G, the self-cleavage amounted to 0.67.
The figure for G44A A47G A52G A110G is 0.17; for U43C A91G U102C it is 1.66; for C46U G65A G79C A86G it is 0.09.
The figure for A47U A56G A98G is 0.08.
The result for G44A A51G A126G reads 1.65; that for U49A A62G A110G U132C U133C, 0.07; that for A47U G104U U130C, 0.01.
On to A47U A96G A110G, for which the self-cleavage was found to be 0.14.
The result for A47U A62G U72C A82G U103C A111G A116U reads 0; that for U43C A51G A54G A66G, 1.2; that for A47G A68G A91G, 0.57.
The result for U43A U103C A118G A140G reads 0.13.
The result for U43C U120C U124C reads 0.49.
Consider A47U A82G A91U A95G U100C, for which the self-cleavage amounted to 1.75.
Take A47U C77A U108C: the self-cleavage was found to be 0.
The result for U43C A82G A94G reads 0.58.
The result for G44C A78G G137A reads 0.16.
On to U43C A91G U100C U103A U130C, for which the self-cleavage amounted to 1.35.
The figure for U49A A56G A86G U131C is 1.28; for A47U U122C U132C it is 0.19; for G48A U102C A110G it is 0.19.
Regarding A47U A66G U102A, the self-cleavage came to 0.24.
The result for U43C U57C U72C U100A G115U reads 0.01; that for A47U A82G A116U U127A, 0.05.
The result for U43C G48A A95G U103C U132C reads 1.15; that for U43C A60G U139A, 1.57.
For A47G G99A U100C, the self-cleavage amounted to 0.26.
As to U43C C77U U108A, the self-cleavage was found to be 0.03.
Regarding A47U A56G A69G C107U, the self-cleavage stood at 0.02.
The figure for G44A A51G A98G U108G is 0.01.
Regarding A47U A55G A126G, the self-cleavage worked out at 0.67.
The figure for A47G A60U U130C is 1.42.
Turning to U43C C45U A62G A94G A114G, the self-cleavage turned out to be 0.21.
In the case of A47U A54G U100C U124C, the self-cleavage was 2.45.
The figure for A47G G83A A111G is 0.02; for A47G A63G U139A A140U it is 1.39; for A47U U103C A117G it is 0.38.
For U43C A78U U131C A140G, the self-cleavage stood at 0.06.
The result for A47G U49C A82U U87C reads 0.18; that for U43C A117C A126G U131C, 0.16.
The result for U43C U49G G136A reads 1.88; that for A47G A69G U100C, 1.87; that for G48A A69G U70C A92G A126G A140G, 0.2.
The result for A47U A95G A98U U102C A118G U122A U132C reads 2; that for G48A U72A A94G, 0.38; that for C46U U72C A114G U132C, 1.99.
With U43G A59G A68U U102C, the self-cleavage was 2.56.
The result for U43A A82G U97C reads 0.33; that for A47G A68G U132C U133C, 1.11.
The figure for A47U A55G U70C is 0.48.
The result for U43G U102C U122C reads 2.16; that for A47U A91U A95G, 1.67; that for U43C A66G A82G, 0.39.
Take U43C C61U A64G U132A: the self-cleavage is 1.55.
The result for A47G U72C U108C U130C reads 0.01; that for U43C A64G A126U, 2.49; that for C46U A96G A111C, 0.01.
The figure for U43G A54G U70C is 1.08; for A47G A68G G83A it is 1.17.
The figure for C46U A69G U122C is 1.37; for C46U A95G U103C A125G it is 1.16; for U49A A52G U87C A126G it is 0.52.
Take A47U A89U A125G: the self-cleavage was found to be 0.45.
Regarding U43C A52G A111C, the self-cleavage was found to be 0.02.
The figure for U43C A59G U87C A96G C113U is 0.01; for A47G U57A U103C U124A it is 0.07; for U43C A68G A89U U131C it is 0.84.
The figure for U43C A114G A116G U139C is 0.03.
The result for U43C A54G A55G A91U reads 0.83; that for A47G A67G U122A, 1.53; that for U43A U72A U130C, 0.14.
Take U43A A82U A118G A135G: the self-cleavage was 0.1.
On to U43A A91U A96G U97C A118U, for which the self-cleavage came out at 0.45.
Turning to U49A A59U U87C A116U U131C, the self-cleavage was 0.24.
The figure for G48A A60G A68G A69G A135G is 0.49; for U43C A86G U103C it is 0.34; for U43C A59G A92G C121A U130C it is 1.94.
The figure for A47U A78U U100C is 1.25; for C45U U49A A52G A68G A78U C112U it is 0.02; for A47G A54G A68G A89G A117U it is 1.14.
The result for U43C A67G A118G U132C reads 0.44; that for U43C A78U A82U A118G, 0.02.
Take A47U A55G U57G: the self-cleavage is 0.27.
The result for A47U A86G A110G U122C reads 0.04; that for C46U A52G A116G, 1.28; that for A47G A64G A66U A68G U131C, 0.12.
A47G A62G A78U: the self-cleavage came out at 0.24.
The result for C45U A69G A89U reads 0.89; that for U43C A47U A64G C105U U130C, 0.04.
On to U43C U87C A90G A110U U131C A140G, for which the self-cleavage amounted to 0.08.
The figure for U43G U120C U131C is 1.56; for A47G U108C U127C it is 0.
The figure for U43C A54G A55G A64G U70C A94G is 0.35.
For the variant U49A A59U A66G C88U A117G, the self-cleavage came to 1.63.
Take U43G A67G A114U: the self-cleavage is 0.07.
The figure for A47U A63G A66G G73A A134G is 0.13.
Take C46A A67U A110G U124C: the self-cleavage stood at 0.09.
The figure for U43C G74A A86G A116G is 0.05; for A47G A60G U102C U131C it is 1.22; for U43C A56G A116G it is 0.11.
Regarding A47G A67G U132A, the self-cleavage was 1.19.
The result for U43A A89U A116G reads 0.63; that for U43C U72A U127C, 0.16; that for U43A A94G A95G U102C U132C, 1.54.
The figure for A47C A54G U100C U130C is 2.76; for U43C U103C A117G it is 1.84; for A47G A78U A92G it is 0.28.
For the variant A47U A86U G115A A126G, the self-cleavage was 0.06.
As to G48A A52G A56G, the self-cleavage stood at 1.43.
The result for C46A A117G G138A reads 1.07; that for A47G A59G A64U A94G U97C U100C, 1.72.
